From PubChem BioAssay AID1745845 (National Center for Advancing Translational Sciences (NCATS), 2022)
Values joined by “and” are separate entries in the source; they are usually repeats but may differ in a detail not shown here. Equal entries are not always repeated. The campaign covered roughly 360,000 compounds. About 2,600 (0.72%) were called active. Inconclusive results, whose numbers are uncertain, are shown with a selection of clear calls. Calls come from the whole dose curve; as a rule, active = well fitted inhibition curve with a large enough effect; inconclusive = small, poorly fitted or top-dose-only effect; inactive = no such curve, though single readings can be large or run the other way. Where the call is inconclusive, the potency comes from a doubtful curve fit.

experiment: Primary qHTS for Inhibitors of ATXN expression; conditions: HEK-293 ATXN2-luciferase reporter, luminescence, 24 h; series mostly up to 57 µM; note: nearly all actives have a fitted effect of over 55% in size
In short: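 ATXN2-luciferase reporter cells (luciferase flanked by upstream and downstream ATXN2 gene portions) were treated 24 h at 37 °C with compounds at up to 57 uM. SteadyGlo luminescence gave expression; GF-AFC fluorescence gave viability.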
Potency is the fitted concentration of half-maximal effect; tags give direction and shape of the fitted curve.

| Structure (SMILES) | Potency |
| --- | --- |
| COc1ccc(CC(=O)NC(=S)Nc2ccc(S(N)(=O)=O)cc2)cc1 | inactive |
| NC(=O)NCC1CC1 | inactive |
| N#CC1=C(SCC(=O)NC23CC4CC(CC(C4)C2)C3)NC(=O)C(C#N)C12CCCCC2 (stereo unspecified) | inconclusive: 39.8 µM [inhibitor, single point] |
| O=c1c(Cl)c(N2CCN(c3ccc(F)cc3)CC2)cnn1C12CC3CC(CC(C3)C1)C2 | inconclusive: 35.5 µM [inhibitor, partial curve, poor fit] |
| Cc1ccn2c(Nc3ccccc3)c(-c3ccccn3)nc2c1 | inconclusive: 10 µM [inhibitor, partial curve, poor fit] |
| NC(Cc1ccc(C(F)(F)F)cc1)c1csc(Nc2ccc(C(=O)c3ccccc3)cc2)n1 (stereo unspecified) | active: 31.6 µM |
| Cc1nc2cc(Cl)c([N+](=O)[O-])cc2s1 | inconclusive: 42.3 µM [inhibitor, partial curve, poor fit] |
| COc1ccc(Nc2cc(-c3cnc(N)nc3)nc(N3CCOCC3)n2)cn1 | inconclusive: 6.85 µM [inhibitor, partial curve] |
| O=C1c2cccc(Cl)c2C(=O)c2c1cccc2N1CCCC1 | inactive |
| CN(C)CCCNC(=O)/C=C/c1ccc(OCc2c(F)cccc2Cl)cc1 | inconclusive: 12.6 µM [inhibitor, partial curve, poor fit] |
| COc1cc(NC(=S)NC(=O)CCc2ccccc2)cc(OC)c1 | inactive |
| Cc1cc(NC(=O)CCS(=O)(=O)c2nc(-c3ccccc3)cc(C(F)(F)F)n2)no1 | inconclusive: 39.8 µM [inhibitor, single point] |
| COc1ccc(NC(=O)CSc2ccc3c(c2)OCCO3)cc1OC | inactive |
| O=C(NCc1ccccc1Cl)C1CCN(S(=O)(=O)c2cccc3nonc23)CC1 | inconclusive: 0.141 µM [inhibitor, full curve, poor fit] |
| Cc1ccccc1CN1CC2=C(CCN(Cc3ccccc3)C2=O)N2CCN=C12 | inconclusive: 3.16 µM [inhibitor, partial curve] |
| CCCCCc1c(-c2ccc(OC)c(OC)c2)ncn1CCc1ccccc1OC | inactive |
| Cc1ccc(NC(=O)c2cc(N3C(=O)C=CC3=O)ccc2N2CCOCC2)cc1 | inconclusive: 37.7 µM [inhibitor, single point] |
| Cc1ccc(N=Nc2ccc(O)c(/C=N\NC(=O)c3ccc(N)cc3)c2)cc1C | inconclusive: 20 µM [inhibitor, partial curve, poor fit] |
| CCOC(=O)[C@]12CCCC=C1N(Cc1ccc3c(c1)OCO3)C(=O)[C@H](CC(=O)NCC13CC4CC(CC(C4)C1)C3)C2 | inconclusive: 39.8 µM [inhibitor, single point] |
| CN(C)c1cc[n+](CC(=O)Nc2ccc(Cl)cc2)cc1 | inconclusive: 0.119 µM [inhibitor, partial curve, poor fit] |
| Cc1cc(C)c(NS(=O)(=O)c2ccc3c(c2)CC(C)N3C(=O)C2CCC2)c(C)c1 (stereo unspecified) | inconclusive: 39.8 µM [inhibitor, partial curve, poor fit] |
| NCCOc1ccc(C23CC4CC(CC(C4)C2)C3)cc1 | inconclusive: 37.7 µM [inhibitor, single point] |

| Structure (SMILES) | Potency |
| --- | --- |
| Cc1ccc(C2=NN(C(=O)CSc3nccn3C)C(c3ccco3)C2)cc1 (stereo unspecified) | inactive |
| COCC(=O)N(C)CC1CCCN(CCc2ccccc2OC)C1 (stereo unspecified) | inactive |
| CC(C)C(=O)N1CCN(c2c(Cl)cccc2[N+](=O)[O-])CC1 | inactive |
| CCC(=C(c1ccc(OC)cc1)c1ccc(OC)cc1)c1cn(CC(O)CN2CCN(C)CC2)c2ccccc12 (stereo unspecified) | inconclusive: 35.5 µM [inhibitor, single point] |
| CCOC(=O)C1CCCN(C(=O)COc2ccc(S(=O)(=O)N3CCOCC3)cc2)C1 (stereo unspecified) | inactive |
| CC(=NNC(=S)Nc1cccc(Cl)c1)c1ccccn1 | inconclusive: 0.282 µM [inhibitor, full curve, poor fit] |
| N#C/C(=C(/O)COC(=O)COc1ccc(Cl)cc1)c1nc2ccccc2[nH]1 | inconclusive: 35.5 µM [inhibitor, single point] |
| Cc1ccc(C2Cc3cc(O)c(O)cc3CN2)cc1 (stereo unspecified) | inconclusive: 31.6 µM [inhibitor, single point] |
| CCCOc1ccc([N+](=O)[O-])cc1C1NC(=S)NC(c2ccccc2)=C1C(=O)OCC (stereo unspecified) | inactive |
| CSCC[C@H](NC(=O)OC(C)(C)C)C(=O)N/N=C/c1cccc2cccnc12 | active: 28.2 µM |
| Cc1nc2cc(NC(=O)CSc3nc4c(C)cccc4cc3C#N)ccc2s1 | inconclusive: 28.2 µM [inhibitor, single point] |
| Cc1ccc(CNCC(O)(c2ccccc2)c2ccc(Cl)cc2)cc1 (stereo unspecified) | inconclusive: 31.6 µM [inhibitor, single point] |
| Cc1ccc(Nc2ccc3cc(S(=O)(=O)N4CCCCC4)ccc3n2)cc1F | inconclusive: 39.8 µM [inhibitor, single point] |
| CC(C)c1noc(N2CCC(COc3ccc(-c4ccc(S(C)(=O)=O)cc4)nc3)CC2)n1 | inconclusive: 8.63 µM [inhibitor, full curve] |
| Cc1ccc(-c2nc(-c3ccccn3)no2)cc1[N+](=O)[O-] | inconclusive: 37.7 µM [inhibitor, single point] |
| CC(C)N1CC2(CC(c3ccccc3C(F)(F)F)=NO2)CN1C(=O)c1ccc(C(C)(C)C)cc1 (stereo unspecified) | inconclusive: 35.5 µM [inhibitor, single point] |
| Cc1sc(NC(=O)C2CCCCC2)c(C#N)c1-c1ccccc1 | inactive |
| Cc1cc(C)n(-c2ccc3cccc(NS(C)(=O)=O)c3n2)n1 | inconclusive: 10 µM [inhibitor, partial curve] |
| COc1ccc(NC(=O)c2cc3c(=O)n(Cc4cccs4)ccc3nc2C)cc1 | inconclusive: 2.82 µM [inhibitor, partial curve, poor fit] |
| COc1ccc(N2CCN(C(=O)c3cc4c(C)nc5ccccc5c4o3)CC2)cc1 | inconclusive: 39.8 µM [inhibitor, single point] |
| Cn1c(SCC(=O)N(C2CCCCC2)C2CCCCC2)nnc1-c1cccs1 | inactive |
| COc1ccc2c(CN3CCN(c4ccc(Cl)c(Cl)c4)CC3)cc(=O)oc2c1 | inactive |

| Structure (SMILES) | Potency |
| --- | --- |
| O=C(Nc1cccc(C(F)(F)F)c1)c1cccc2c(-c3cccnc3)coc12 | inconclusive: 20 µM [inhibitor, partial curve] |
| CCOC(=O)NC1Cc2ccccc2C1Sc1ccccn1 (stereo unspecified) | inactive |
| COc1ccc(C(=O)CCN2CCCC(C)C2)cc1 (stereo unspecified) | inactive |
| CN(C(=O)c1cccc(NC(=O)Cc2ccc(NC(=O)C3CCCN(C(=O)CCc4ccccc4)C3)cc2)c1)C1CCCC1 (stereo unspecified) | inconclusive: 20 µM [inhibitor, partial curve, poor fit] |
| CCN(CC)C(=O)[C@H]1C[C@H](CC(=O)NCc2cccc(C(F)(F)F)c2)C(=O)N2CCc3c([nH]c4cc(CCC(=O)N(C)C)ccc34)[C@]12C | inactive |
| O=C(N/N=C/c1ccccc1[N+](=O)[O-])c1ccc2c(c1)OCCO2 | inconclusive: 17.8 µM [inhibitor, single point] |
| CCc1nn(-c2ccccc2)c2nc(-c3ccc(O)cc3)c3cc(OC)c(OC)cc3c12 | inactive |
| CCN(CC)C(=O)[C@H]1CC(CC(=O)NC/C=C(\C)CCC=C(C)C)C(=O)N2CCc3c([nH]c4ccccc34)[C@]12C (stereo partly specified) | inconclusive: 39.8 µM [inhibitor, single point] |
| CC(=O)Nc1ccc(NC(=O)COC(=O)CCc2nc3ccccc3s2)cc1 | inactive |
| O=C(CSCc1ccccc1Cl)N1CCN(c2ccccn2)CC1 | inactive |
| Cc1cccc(-c2nc(CN3CCCC(C(=O)NCc4ccc(Cl)cc4)C3)c(C)o2)c1 (stereo unspecified) | inactive |
| O=C1N/C(=N\N=C\c2cccs2)SC1Cc1cccc(Cl)c1 (stereo unspecified) | inactive |
| O=C(NCCc1csc(-c2cccc(F)c2)n1)c1ccccc1C(F)(F)F | inconclusive: 25.1 µM [inhibitor, single point] |
| O=c1[nH]c(CSc2ccccn2)nc2c1oc1ccccc12 | inconclusive: 15.8 µM [inhibitor, single point] |
| COC(=O)COc1ccc(S(=O)(=O)Nc2ccc(C(N)=O)cc2)cc1C | inactive |
| CC(=O)c1ccc(OCC(O)CN2CCN(CCN3C(=O)c4cccc5cccc(c45)C3=O)CC2)cc1 (stereo unspecified) | inconclusive: 31.6 µM [inhibitor, single point] |
| O=C(COC(=O)c1ccccc1C(=O)OCC(=O)NCCc1c[nH]c2ccccc12)NCCc1c[nH]c2ccccc12 | inconclusive: 39.8 µM [inhibitor, single point] |
| Cc1cc(C)cc(N(C(=O)c2nsc(Cl)c2Cl)C(C(=O)NC2CCCC2)c2ccc(O)cc2)c1 (stereo unspecified) | inconclusive: 39.8 µM [inhibitor, single point] |
| O=C(Nc1nccs1)c1cc(-c2ccccn2)nc2c(Cl)cccc12 | inconclusive: 28.2 µM [inhibitor, partial curve] |
| N=c1n(CCN2CCCCC2)c2ccccc2n1CC(O)COc1ccccc1 (stereo unspecified) | inactive and inconclusive: 39.8 µM [inhibitor, single point] |
| O=C(N/N=C/c1cccc2cccnc12)[C@H]1C[C@@H]1c1ccccc1 | inconclusive: 29.9 µM [inhibitor, single point] |
| C#CCOCCOCCOCCNc1nc(N2CCN(C(=O)CCCCCCCCCCNC(=O)Cn3cc(C[C@@H](C)O)nn3)CC2)nc(N2CCN(C(=O)CCCCCCCCCCNC(=O)[C@@H]([C@H](C)O)n3cc(C)nn3)CC2)n1 | inconclusive: 35.5 µM [inhibitor, single point] |
